Assay results reported in PubChem BioAssay AID1508623 (National Center for Advancing Translational Sciences (NCATS), 2021).
The campaign covered roughly 48,000 compounds. About 450 (0.94%) were called active. The inconclusive results got no clear call from the source; some entries with a clear call stand among them for comparison. Calls come from the whole dose curve; as a rule, active = well fitted inhibition curve with a large enough effect; inconclusive = small, poorly fitted or top-dose-only effect; inactive = no such curve, though single readings can be large or run the other way. A potency beside an inconclusive call is a rough fit, not a confirmed value.
Potency is the fitted concentration of half-maximal effect; tags give direction and shape of the fitted curve.

Test: Primary qHTS for Identification of Small Molecule Inhibitors of Huntingtin Promoter Activity; note: nearly all actives have a fitted effect of over 50% in size
Details: HEK293 HTT promoter firefly luciferase reporter (activity 0% = vehicle and -100% = no light), 24 h; series mostly up to 57.5 µM; activity change, negative = inhibition: at the top concentration
Procedure, shortened: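 Firefly luciferase signal from promoter-reporter HEK293 cells was scaled between vehicle (0%) and zero RLU (-100%). Compounds were tested at final concentrations of up to 57.5 uM over 24 h at 37 degrees C. PTC124 at 50 uM final served as control inhibitor.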
For COc1ccc(N(C(=O)Oc2c(C)cccc2C)c2ccnc(Nc3ccc(N4CCN(C)CC4)cc3)n2)c(OC)c1, the Potency was inconclusive: 1.37 µM [inhibitor, partial curve].
With COC1=C[C@@H]2[C@@H]3Cc4ccc(OC)c(O)c4[C@]2(CCN3C)CC1=O the Potency was inconclusive: 24.3 µM [inhibitor, partial curve].
For N#Cc1cc2c(nc1SCC(=O)Nc1cccc(F)c1)C1CCN2CC1, the Potency was inconclusive: 22.4 µM [inhibitor, partial curve, poor fit].
With C#C[C@]1(O)C=C[C@@H]2[C@@H]3CCC4=CC(=O)CC[C@@H]4[C@H]3CC[C@@]21CC the “activity change, negative = inhibition” value was inactive: 1.45%.
With C=CCC1=C(C)C(OC(=O)C2C(C=C(C)C)C2(C)C)CC1=O (configuration not stated) the “activity change, negative = inhibition” value was inactive: -17.3% [at 116 µM].
In the case of C[C@@H]1O[C@@H](O[C@@H]2C=C3CC[C@@H]4[C@@H](CC[C@]5(C)[C@H](c6ccc(=O)oc6)CC[C@@]45O)[C@@]3(C)CC2)[C@H](O)[C@H](O)[C@H]1O, the Potency is reported as inconclusive: 0.0273 µM [inhibitor, full curve].
With CC[C@H]1C=CC=CC[C@@H](C)[C@H](O)[C@@](C)(O)C(=O)[C@@H](C)[C@H](O)[C@@H](C)C(=O)[C@@H](C)[C@H](O)[C@@H](C)C=CC(=O)O[C@@H]2[C@@H](C)[C@H](CC1)O[C@]1(CC[C@H](C)[C@H](C[C@@H](C)O)O1)[C@H]2C the Potency was inconclusive: 0.0544 µM [inhibitor, full curve].
In the case of CC1(N2CCC(n3c([C@@H]4CCCNC4)nc4ccccc43)CC2)CCCCCCC1, the “activity change, negative = inhibition” value is reported as inactive: -3.42%.
For Cc1ccc(-n2c(/C=C/c3ccccc3)nc3ccccc3c2=O)cc1Cl, the Potency was inconclusive: 39.8 µM [inhibitor, single point].
For O=C(NCC1CCOCC1)c1cnc(Nc2ccc(Cl)cc2Cl)nc1C(F)(F)F, the Potency was inconclusive: 3.43 µM [inhibitor, full curve].
For COc1ccc(-c2nc(CN3C(=O)CN=C(c4ccccc4Cl)c4cc(Cl)ccc43)c(C)o2)cc1OC, the Potency was inconclusive: 31.6 µM [inhibitor, single point].
For C[C@](O)(CS(=O)(=O)c1ccc(F)cc1)C(=O)Nc1ccc(C#N)c(C(F)(F)F)c1, the Potency was inconclusive: 1.93 µM [inhibitor, full curve].
For N#Cc1nn(-c2c(Cl)cc(C(F)(F)F)cc2Cl)c(N)c1S(=O)C(F)(F)F (configuration not stated), the Potency was inconclusive: 25.1 µM [inhibitor, single point].
With O=C(O)C(=O)c1cn(Cc2ccccc2)c2ccc(-c3ccc(OC(F)(F)F)cc3)cc12 the “activity change, negative = inhibition” value was inactive: -15.6%.
With COCC(=O)N(c1c(C)cccc1C)C(C)C(=O)OC (configuration not stated) the “activity change, negative = inhibition” value was inactive: -8.27%.
In the case of Cc1ccc(-c2nc(CN3C(=O)CN=C(c4ccccc4)c4cc(Cl)ccc43)c(C)o2)cc1, the Potency is reported as inconclusive: 31.6 µM [inhibitor, single point].
In the case of COc1ccc(/C=C/c2nc3ccccc3c(=O)n2-c2ccc(C)cc2)cc1O, the Potency is reported as inconclusive: 39.8 µM [inhibitor, single point].
For O=C(CCc1nc(C2=CCN(Cc3cccc(Cl)c3)CC2)no1)Nc1ccccc1F, the “activity change, negative = inhibition” value was inactive: -32.7%.
With c1ccc(CCCN2CCN(CCOC(c3ccccc3)c3ccccc3)CC2)cc1 the Potency was inconclusive: 30.6 µM [inhibitor, partial curve].
With O=c1c2ccccc2nc(/C=C\c2ccc(F)cc2)n1-c1ccccc1F the Potency was inconclusive: 31.6 µM [inhibitor, partial curve, poor fit].
In the case of CCCN(CCC)c1c([N+](=O)[O-])cc(S(N)(=O)=O)cc1[N+](=O)[O-], the Potency is reported as inconclusive: 35.5 µM [inhibitor, single point].
For CC(Cc1ccccc1)NCCCCl (configuration not stated), the “activity change, negative = inhibition” value was inactive: -2.3%.
In the case of CCC(OC(C)=O)C(CC(C)NC)(c1ccccc1)c1ccccc1 (configuration not stated), the “activity change, negative = inhibition” value is reported as inactive: -27.3% [at 116 µM].
With CCc1ccc(NC(=O)c2cccn(Cc3cccc([N+](=O)[O-])c3)c2=O)cc1 the Potency was inconclusive: 10 µM [inhibitor, partial curve, poor fit].
For CO[C@H]1CCC(O[C@H]2C[C@H]([C@]3(C)CC[C@]4(C[C@H](O)[C@@H](C)[C@@H]([C@@H](C)C=C(C)C(=O)[C@H](C)C[C@H](C)C(=O)O)O4)O3)O[C@]3(O[C@@H]([C@H]4O[C@@](O)(CO)[C@H](C)C[C@H]4C)C[C@H]3C)[C@H]2C)O[C@H]1C (some centres not stated), the Potency was inconclusive: 6.85 µM [inhibitor, partial curve].
For Cc1[nH]nc2ccc(-c3cncc(OC[C@@H](N)Cc4c[nH]c5ccccc45)c3)cc12, the Potency was inconclusive: 0.769 µM [inhibitor, full curve].
With CCc1c(C(=O)C(N)=O)c2c(OCC(=O)O)cccc2n1Cc1ccccc1 the “activity change, negative = inhibition” value was inactive: -6.85%.
With CN1C(=O)[C@@H](NC(=O)c2cc3ccccc3[nH]2)N=C(c2ccccc2)c2ccccc21 the Potency was inconclusive: 28.2 µM [inhibitor, single point].
In the case of O=c1c2ccccc2nc(/C=C/c2cccc3ccccc23)n1-c1ccccc1Cl, the Potency is reported as active: 28.2 µM.
With CC[n+]1c(-c2ccccc2)c2cc(N)ccc2c2ccc(N)cc21 the “activity change, negative = inhibition” value was inactive: -27.6%.
In the case of Cc1ccc(-n2c(/C=C/c3ccc(Br)s3)nc3ccccc3c2=O)cc1, the Potency is reported as inconclusive: 35.5 µM [inhibitor, partial curve, poor fit].
With Cc1cc(-n2c(/C=C/c3cccs3)nc3ccccc3c2=O)ccc1Br the Potency was inconclusive: 39.8 µM [inhibitor, single point].
With Cc1cc(-n2c(/C=C/c3ccc(Br)s3)nc3ccccc3c2=O)ccc1Br the Potency was inconclusive: 35.5 µM [inhibitor, single point].
For CCCCc1ccc(NC(=O)c2cccn(Cc3ccc(Cl)cc3)c2=O)cc1, the Potency was inconclusive: 1.58 µM [inhibitor, full curve, poor fit].
In the case of Cc1ccc(-n2c(/C=C/c3cc(Br)cs3)nc3ccccc3c2=O)cc1, the Potency is reported as inconclusive: 39.8 µM [inhibitor, single point].
In the case of Cc1ccccc1CN1C(=O)CN=C(c2ccccc2)c2cc(Cl)ccc21, the Potency is reported as inconclusive: 28.2 µM [inhibitor, single point].
With O=C(Oc1ccc([N+](=O)[O-])cc1)N1CCN(Cc2cccc(Oc3ccccc3)c2)CC1 the Potency was inconclusive: 24.3 µM [inhibitor, partial curve].
